The text below walks through data of a collection of fitness landscapes (doi:10.1016/j.celrep.2020.107928).

The chains are these.
B1: Caulobacter ParB omega fusion; a variant is named by its letters at X, in order, B8GW30 (parent)
chain: MESVVVGEPGMSEGRRGLGRGLSALLGEVDAAPAQAPGEQLGGSREAPIEILQRNPDQPRRTFREEDLEDLSNSIREKGVLQPILVRPSPDTAGEYQIVAGERAWRAAQRAGLKTVPIMVRELDDLAVLEIGIIENVQRADLNVLEEALSYKVLMEKFERTQENIAQTIGKSXSHVANXMRLLXLPDEVQSYLVSGELTAXHARAIAAAADPVALAKQIIEGGLSVRETEALARKAPNLSAGKSKGGRPPRVKDTDTQALESDLSSVLGLDVSIDHRGSTGTLTITYATLEQLDDLCNRLTRGI

The full ranking holds about 81,000 sequences; the median of “one-hybrid fitness for binding NBS DNA” is about -0.1, and the highest 2% start at about 0.36. Some of the results follow.

The assay covers variants of B1. The experiment in a line: one-hybrid fitness for binding NBS DNA (the Noc-binding site; scaled: cognate 1, non-cognate 0); higher = stronger binding. Particulars: with NBS DNA site. The method in brief: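 Fitness is the rescaled log change in variant-to-wild-type read ratio, measured by Illumina sequencing of plasmids before and after bacterial one-hybrid selection. The scale puts cognate at 1 and non-cognate at 0. Selection of Caulobacter ParB libraries, four specificity codons randomised, took place in E. coli USO with a HIS3 reporter, site 19 bp from the promoter, over 48 hours at 37°C on M9-minus-histidine with 0.1 mM IPTG and 5 mM 3-AT.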
Consider GSSE, for which the “one-hybrid fitness for binding NBS DNA” value was at most 0.2.

For the variant PDRT, the “one-hybrid fitness for binding NBS DNA” value is at most 0.2.

Turning to DTLK, the “one-hybrid fitness for binding NBS DNA” value is at most 0.2.

PAYY: the “one-hybrid fitness for binding NBS DNA” value was at most 0.2.

For KLMC, the “one-hybrid fitness for binding NBS DNA” value is at most 0.2.

With TLCL, the “one-hybrid fitness for binding NBS DNA” value was at most 0.2.

Turning to RQQW, the “one-hybrid fitness for binding NBS DNA” value is at most 0.2.

As for PACK, the “one-hybrid fitness for binding NBS DNA” value is at most 0.2.

As for LVQC, the “one-hybrid fitness for binding NBS DNA” value was at most 0.2.

LMKE: the “one-hybrid fitness for binding NBS DNA” value is at most 0.2.

In the case of RAIH, the “one-hybrid fitness for binding NBS DNA” value is at most 0.2.

As to PVQP, the “one-hybrid fitness for binding NBS DNA” value is at most 0.2.

Take AMYC: the “one-hybrid fitness for binding NBS DNA” value is at most 0.2.

As for FVHC, the “one-hybrid fitness for binding NBS DNA” value is at most 0.2.

Turning to MIIT, the “one-hybrid fitness for binding NBS DNA” value is at most 0.2.

Take LAAF: the “one-hybrid fitness for binding NBS DNA” value was at most 0.2.

As to QDVM, the “one-hybrid fitness for binding NBS DNA” value is at most 0.2.

For the variant DAAF, the “one-hybrid fitness for binding NBS DNA” value is at most 0.2.

As for EDLG, the “one-hybrid fitness for binding NBS DNA” value was at most 0.2.

For WGRT, the “one-hybrid fitness for binding NBS DNA” value was at most 0.2.

Take DAPL: the “one-hybrid fitness for binding NBS DNA” value is at most 0.2.

With CVLK, the “one-hybrid fitness for binding NBS DNA” value is at most 0.2.

Consider KTVK, for which the “one-hybrid fitness for binding NBS DNA” value was at most 0.2.

In the case of LADF, the “one-hybrid fitness for binding NBS DNA” value was at most 0.2.

On to FMRS, for which the “one-hybrid fitness for binding NBS DNA” value is at most 0.2.

Regarding SPMT, the “one-hybrid fitness for binding NBS DNA” value was at most 0.2.

In the case of FPLR, the “one-hybrid fitness for binding NBS DNA” value was at most 0.2.

With ELYS, the “one-hybrid fitness for binding NBS DNA” value was at most 0.2.

For MPPY, the “one-hybrid fitness for binding NBS DNA” value is at most 0.2.

In the case of RPNW, the “one-hybrid fitness for binding NBS DNA” value is at most 0.2.

For VNDR, the “one-hybrid fitness for binding NBS DNA” value was at most 0.2.

In the case of SFMN, the “one-hybrid fitness for binding NBS DNA” value was at most 0.2.

As for CFHS, the “one-hybrid fitness for binding NBS DNA” value was at most 0.2.

Regarding TYMT, the “one-hybrid fitness for binding NBS DNA” value was at most 0.2.

Regarding YYFF, the “one-hybrid fitness for binding NBS DNA” value was at most 0.2.

In the case of AGNG, the “one-hybrid fitness for binding NBS DNA” value is at most 0.2.

On to RRKE, for which the “one-hybrid fitness for binding NBS DNA” value worked out at 0.214.

Turning to HNDG, the “one-hybrid fitness for binding NBS DNA” value was at most 0.2.

In the case of RRVT, the “one-hybrid fitness for binding NBS DNA” value is 0.755.

Take FGGS: the “one-hybrid fitness for binding NBS DNA” value was at most 0.2.

As to WAYG, the “one-hybrid fitness for binding NBS DNA” value was at most 0.2.

On to TGRE, for which the “one-hybrid fitness for binding NBS DNA” value was at most 0.2.

In the case of ALPD, the “one-hybrid fitness for binding NBS DNA” value was at most 0.2.

As for TNVF, the “one-hybrid fitness for binding NBS DNA” value was at most 0.2.

In the case of QPHY, the “one-hybrid fitness for binding NBS DNA” value is at most 0.2.

In the case of LCYS, the “one-hybrid fitness for binding NBS DNA” value is at most 0.2.

With QMMC, the “one-hybrid fitness for binding NBS DNA” value is at most 0.2.

For RRTI, the “one-hybrid fitness for binding NBS DNA” value was 0.211.

For the variant HWSG, the “one-hybrid fitness for binding NBS DNA” value was at most 0.2.

PWQG: the “one-hybrid fitness for binding NBS DNA” value was at most 0.2.

For GPVD, the “one-hybrid fitness for binding NBS DNA” value is at most 0.2.

For QYDV, the “one-hybrid fitness for binding NBS DNA” value is at most 0.2.

On to DGYC, for which the “one-hybrid fitness for binding NBS DNA” value is at most 0.2.

For SVLC, the “one-hybrid fitness for binding NBS DNA” value was at most 0.2.

Take SSLH: the “one-hybrid fitness for binding NBS DNA” value is at most 0.2.

In the case of SEIW, the “one-hybrid fitness for binding NBS DNA” value is at most 0.2.

For MRWT, the “one-hybrid fitness for binding NBS DNA” value was at most 0.2.

For the variant TKGC, the “one-hybrid fitness for binding NBS DNA” value was at most 0.2.

For VADQ, the “one-hybrid fitness for binding NBS DNA” value was at most 0.2.

For the variant RSMP, the “one-hybrid fitness for binding NBS DNA” value was at most 0.2.

Regarding PHPG, the “one-hybrid fitness for binding NBS DNA” value is at most 0.2.

For the variant YAAS, the “one-hybrid fitness for binding NBS DNA” value is at most 0.2.

As to ALVC, the “one-hybrid fitness for binding NBS DNA” value was at most 0.2.

For TSWN, the “one-hybrid fitness for binding NBS DNA” value was at most 0.2.

With RWTR, the “one-hybrid fitness for binding NBS DNA” value is at most 0.2.

On to SLVC, for which the “one-hybrid fitness for binding NBS DNA” value is at most 0.2.

For RCRS, the “one-hybrid fitness for binding NBS DNA” value amounted to 0.661.

As to GEDM, the “one-hybrid fitness for binding NBS DNA” value was at most 0.2.

Regarding VALL, the “one-hybrid fitness for binding NBS DNA” value is at most 0.2.

For ELVT, the “one-hybrid fitness for binding NBS DNA” value was at most 0.2.

As for KGKR, the “one-hybrid fitness for binding NBS DNA” value was at most 0.2.

GARR: the “one-hybrid fitness for binding NBS DNA” value is at most 0.2.

As to SRNE, the “one-hybrid fitness for binding NBS DNA” value is at most 0.2.

As for TCSC, the “one-hybrid fitness for binding NBS DNA” value was at most 0.2.

Consider VCEA, for which the “one-hybrid fitness for binding NBS DNA” value was at most 0.2.

On to RGMR, for which the “one-hybrid fitness for binding NBS DNA” value was at most 0.2.

CWSY: the “one-hybrid fitness for binding NBS DNA” value is at most 0.2.
